Measurements taken from PubChem BioAssay AID485344 (National Center for Advancing Translational Sciences (NCATS), 2010).
Screen size: about 340,000 compounds; about 6,900 (2%) were called active. No stated cut-off is given here; in the data, active means inhibition above about 30%; inactive means below that, where a call was filed. Only a part is listed here, and it is no random draw. Where no call is shown, the source filed none.

Target: D(2) dopamine receptor (Homo sapiens) (UniProt P14416)
Test: HTS Assay for Allosteric Antagonists of the Human D2 Dopamine Receptor: Primary Screen for Antagonists; further: 0% is about no effect
Settings: HEK293 TREx D2 cells, calcium flux, dopamine EC80; at 10 µM; stronger effect = higher value
How it was run: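 Read-out: kinetic calcium fluorescence (1 cycle/s) in inducible HEK293 T-REx D2 cells after an EC80 dopamine addition that followed 180 s compound preincubation. Loss of the dopamine response indicates antagonism.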

Chain of UniProt P14416 (P14416 whole entry, looked up): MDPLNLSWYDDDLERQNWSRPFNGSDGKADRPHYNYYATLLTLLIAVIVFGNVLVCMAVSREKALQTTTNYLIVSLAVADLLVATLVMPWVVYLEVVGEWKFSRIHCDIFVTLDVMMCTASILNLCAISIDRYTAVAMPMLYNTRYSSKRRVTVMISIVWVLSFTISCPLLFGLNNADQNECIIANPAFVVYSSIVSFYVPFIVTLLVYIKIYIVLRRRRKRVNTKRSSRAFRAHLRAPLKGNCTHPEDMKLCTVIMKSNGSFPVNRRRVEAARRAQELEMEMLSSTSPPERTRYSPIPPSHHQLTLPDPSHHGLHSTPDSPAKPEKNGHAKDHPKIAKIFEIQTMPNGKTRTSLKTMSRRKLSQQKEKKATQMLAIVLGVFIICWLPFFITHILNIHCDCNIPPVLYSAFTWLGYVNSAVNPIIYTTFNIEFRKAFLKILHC

SMILES | inhibition
O=C(CCCn1c(=O)c2cccn2c2ccccc21)NCc1ccccc1Br | -14%
Cc1ccc(Nc2sc(C(=O)c3ccccc3)c(N)c2C(N)=O)cc1 | -4.33%
CC1CCN(C(=O)C2COc3ccccc3C2)CC1 (configuration not stated) | 8.82%
CCc1ccccc1NC(=O)Cn1c(SCc2ccc(F)cc2)nc2ccncc21 | 3.53%
CCOc1ccccc1NC(=O)C1=C(C)Nc2ncnn2C1c1ccc(C)o1 (configuration not stated) | -20.3%
COc1ccc(-c2nc(CCNC(=O)c3ccc(Br)o3)cs2)cc1 | -4.58%
O=[N+]([O-])c1cc(-c2nc(-c3ccccc3)no2)ccc1N1CCOCC1 | 9.19%
Cc1cccc(NC(=O)c2oc3ccccc3c2NC(=O)Cc2coc3ccc(C(C)C)cc23)c1 | 9.88%
CCc1cccc(CC)c1NC(=O)CCS(=O)(=O)c1ccc2c(c1)CCN2C(C)=O | 12.7%
COc1ccc(-c2nc(CNS(=O)(=O)c3cccc(F)c3)cs2)cc1 | -2.53%
O=C(Cn1cnc2onc(-c3ccc(Cl)cc3)c2c1=O)Nc1ccc(F)cc1 | -25.5%
COCCNC(=O)CN1C(=O)c2cccnc2Oc2ccc(Cl)cc21 | -4.44%
Cc1ccc(S(=O)(=O)N(CCc2ccccc2)CC(=O)Nc2ccc(Br)cc2)cc1 | -0.625%
CCOC(=O)c1ccc(N2C(=O)c3n[nH]c(-c4ccco4)c3C2c2cccc(O)c2)cc1 (configuration not stated) | 15.2%
CCOc1ccc(NC(=O)N2CCN3CCCCC3C2)cc1 (configuration not stated) | 9.57%
COc1ccc(S(=O)(=O)NCc2nc3nc(C)cc(C)n3n2)cc1OC | 4.62%
COc1ccc(Nc2c3c(nc4nncn24)CCC3)cc1OC | -15%
CCN(CC)CCOC(=O)c1ccc(NC(=O)CCCN2C(=O)/C(=C\c3cccs3)SC2=S)cc1 | active: 67.7%
COc1ccc(CNC(=O)CSc2c3c(nc4ccc(Cl)cc24)CCCC3)cc1 | 7.79%
CCc1nn(CC(=O)Nc2ccc(NC(C)=O)cc2)c(=O)c2cc3sccc3n12 | 14.4%
CCCCN(CC)CCCNC(=O)Cn1ncc2c3ccccc3n(Cc3ccc(F)cc3)c2c1=O | 4.44%
Cn1c(=O)c(=O)n(C)c2cc(S(=O)(=O)N3CCN(c4ccccc4)CC3)ccc21 | -0.304%
Cc1ccc(C(=O)Nc2cccc(C(=O)OCc3cc(=O)n4nc(C5CC5)sc4n3)c2)cc1 | -26.4%
Cc1c(C(=O)Nc2ccccc2Cl)oc2ccc(S(=O)(=O)N3CCCCC3)cc12 | -1.62%
CCCn1c2ccc(F)cc2c2nnc(SCCN(CC)CC)nc21 | 18.7%

SMILES | inhibition
COCC(C)Nc1ncnc2c1cnn2-c1ccc(C)c(C)c1 (configuration not stated) | 18.9%
CCCOc1ccc(C2CC(=O)Nc3c2c(=O)n(C)c(=O)n3C)cc1OC (configuration not stated) | 8.93%
CCOc1ccc(N2CC(NC(=O)C3CC3)CC2=O)cc1 (configuration not stated) | 27.1%
COc1ccc(-n2nc(C(=O)NCc3ccc(F)cc3Cl)c3c4ccccc4n(C)c3c2=O)cc1Cl | -6.76%
Cc1ccc(-c2nc(N3CCCC(C)C3)c3ccccc3n2)cc1 (configuration not stated) | 2.1%
CCc1ccccc1NC(=O)CSc1nc2c(oc3ccccc32)c(=O)n1C | 18.7%
NC(=O)C1CCN(S(=O)(=O)c2ccc(N3CCCCS3(=O)=O)cc2)CC1 | 16.6%
Cc1ccc(CN2CCCn3nc(C(=O)NCCc4ccccc4Cl)cc3C2=O)cc1 | 4.54%
Cc1nn(C)c2c1c(-c1ccccc1)cc(=O)n2CC(=O)NC(C)C | 8.72%
COc1ccc(CCNCc2ccc3c(c2)n(C)c(=O)n3C)cc1OC | 1.37%
CCc1nc(SC)ncc1C(=O)N1CCN(c2cc(C)ccc2C)CC1 | -3.14%
CCOC(=O)c1c(S(=O)(=O)N2CCCC(C(=O)NCc3ccccc3OC)C2)c(C)n(C)c1C (configuration not stated) | -20%
Cc1ccsc1C(=O)Nc1ccccc1N1CCOCC1 | active: 38.4%
Cc1ccc(NC(=O)c2ccc(=O)n(Cc3ccccc3C)c2)c(C)c1 | 6.65%
Cc1ccc(CN2CCCn3nc(C(=O)NCCc4cccc(C)c4)cc3C2=O)cc1 | -5.26%
COc1ccc(N2C(=O)CSC23C(=O)N(Cc2cccc(F)c2)c2ccccc23)cc1Cl (configuration not stated) | 0.155%
O=S(=O)(c1ccc2nc(N3CCN(c4ccccc4F)CC3)ccc2c1)N1CCCCC1 | 3.21%
Cc1nc(-n2nc(C)c(CCC(C)C)c2C)sc1C(=O)Nc1ccc(Cl)cc1 | -12.7%
COc1ccc2c(c1)c1c(c(=O)n(-c3cccc(C)c3)c(=O)n1Cc1cccc(Cl)c1)n2C | 0.13%
O=C(c1cc2c(=O)oc3ccccc3c2s1)N1CCN(c2ccccc2)CC1 | -2.03%
O=C(Nc1cc2c(cc1C(=O)c1ccccc1Br)OCCO2)c1cccc(Cl)c1 | 12.7%
Cc1ccc(-n2nc(C)c3c(C)cc(=O)n(CC(=O)Nc4cccc(C)c4C)c32)cc1 | -9.89%
COc1ccccc1CNc1ncnc2c1cnn2-c1ccc(C)cc1 | 19.2%
COc1ccc(-c2nn(-c3ccccc3)cc2C2NC(=O)NC(C)=C2C(=O)OC(C)C)cc1OC (configuration not stated) | 7.69%
Cc1ccc(-c2noc(-c3nnn(-c4cccc(C(F)(F)F)c4)c3N)n2)cc1 | -5.63%

SMILES | inhibition
CSc1ccccc1NC(=O)CSc1n[nH]c(C)c1[N+](=O)[O-] | active: 40.7%
COc1ccc(OC)c(S(=O)(=O)NCC(c2cccs2)S(=O)(=O)c2ccc(F)cc2)c1 (configuration not stated) | 12.2%
Cc1ccccc1NC(=O)c1sc2nc3c(cc2c1N)CN(Cc1ccccc1)CC3 | 6.49%
CCCS(=O)(=O)N1CCC(C(=O)NCCOC)CC1 | -22.6%
Cc1cc(F)ccc1NC(=O)C1CCC(CNS(=O)(=O)c2ccc3c(c2)CCCC(=O)N3)CC1 (configuration not stated) | 3.45%
COc1cccc(N2CCN(C(=O)CN3CCSc4ccccc43)CC2)c1 | -9.98%
CCC(C)NC(=O)c1sc2nc(C)c(C(=O)Nc3ccc(C)cc3C)c(-c3ccc(NC(C)=O)cc3)c2c1N (configuration not stated) | 13.7%
COCCNC(=O)CCCn1c(SCC(=O)NCc2ccc(C)cc2)nc2c(sc3ccccc32)c1=O | 13.5%
COCCNc1ccc2cc(S(=O)(=O)N3CCCCC3)ccc2n1 | 1.93%
Cc1ccc2nc(NC(=O)CSc3nccn3Cc3ccc(F)cc3)sc2c1 | -3.25%
O=C(O)c1ccc(Cn2c(SCc3ccc(F)cc3)nc3ccncc32)cc1 | -1.68%
CCc1ccc(NS(=O)(=O)c2[nH]ncc2C(=O)OC)cc1 | -25.2%
Cc1ccccc1Cn1c(=O)n(-c2ccc(Cl)cc2)c(=O)c2c3c(sc21)CCCC3 | -7.72%
CC(C)NC(=O)CN1C(=O)CCn2nc(-c3cn(C)c4ccccc34)cc21 | 22.8%
COc1ccc(Cn2c(C(=O)O)c(CNCc3ccc(SC)cc3)c3ccc(OC)cc32)cc1 | -11.6%
COC(=O)c1ccccc1NC(=O)CSc1nc(C)c(Cl)c(C)c1C#N | -11.9%
Cc1ccc(-c2cc(C(=O)Oc3ccc(C#N)cc3)no2)cc1C | -0.724%
CCOC(=O)c1cccc(NC(=O)c2cnc3sc(N4CCOCC4)nn3c2=O)c1 | -0.304%
CCOCCCNC(=O)c1cc(C)nn1-c1ccccc1 | active: 36.1%
Cc1ccc2c(c1)c1c(c(=O)n(Cc3ccccc3)c(=O)n1CC(=O)Nc1ccccc1F)n2C | 8.44%
Cc1ccccc1CCNC(=O)c1ccc2c(c1)nc1n2CCCCC1 | 10.5%
Cc1cc(C)cc(NC(=O)C2CC(=O)N(c3ccccc3)C2)c1 (configuration not stated) | -4.31%
O=C(Nc1sc2c(c1C(=O)NCC1CCCO1)CCCC2)c1cc(=O)c2ccccc2o1 (configuration not stated) | -6.52%
O=C(CCn1c(=O)c2sccc2n(Cc2ccc(F)cc2Cl)c1=O)NCc1ccc2c(c1)OCO2 | -3.73%
Cc1ccc(-c2nc3ccccc3o2)cc1NC(=O)Cc1ccc(Cl)cc1 | 9.49%

SMILES | inhibition
COc1ccc(OC)c(CNCc2c(C(=O)O)n(Cc3cccc(F)c3)c3cc(OC)ccc23)c1 | -4.15%
Cc1ccc(C(c2c(O)cc(C)n(Cc3ccco3)c2=O)N2CCC(C)CC2)cc1 (configuration not stated) | 9.27%
Cc1cc(-c2ccc(C)c(S(=O)(=O)NCC3CCN(Cc4ccccc4F)CC3)c2)on1 | 10.7%
O=C(Cn1ncc2c3ccccc3n(Cc3ccc(F)cc3)c2c1=O)NCc1ccccn1 | -1.99%
Cc1ccc(SCC(=O)Nc2ccc3oc(-c4cccc(Cl)c4)nc3c2)cc1 | 9.34%
CCc1ccc(NC(=O)CSc2nc(=O)n(Cc3ccncc3)c3c2CCC3)cc1 | 16.5%
Cc1cc2c(cc1S(=O)(=O)CCC(=O)N1CCCCC1C)OCC(=O)N2 (configuration not stated) | -13.9%
O=C(COCc1cc(-c2ccc3c(c2)OCO3)on1)Nc1cc(C(F)(F)F)ccc1Cl | -14%
CCN1CCN(CCCNC(=O)Cn2c(-c3cccs3)cc3cc(F)ccc32)CC1 | 12.3%
CCCCN(C)CCNC(=O)CN1C(=O)CSc2ccc(S(=O)(=O)N3CCCCC3)cc21 | 19.5%
CCOC(=O)N1CCc2c(sc(NCc3cccs3)c2C(=O)Nc2ccc(OC)cc2OC)C1 | 7.01%
O=c1c(S(=O)(=O)c2ccccc2)cn(Cc2cccc(F)c2)c2cc(N3CCCC3)c(F)cc12 | 25.9%
COc1ccccc1N1CCN(S(=O)(=O)CCNC(=O)Cc2ccc(Cl)cc2)CC1 | 8.82%
Nc1ccc2oc(-c3ccccc3Cl)cc(=O)c2c1O | active: 50.3%
CCCS(=O)(=O)N1CC(=O)N(c2ccc(C)cc2C)C(C)(C(=O)NC2CCCCCC2)C1 (configuration not stated) | -3.49%
O=C(Cn1c(=O)nc(-c2ccccc2)c2cc(Cl)ccc21)NCc1ccc(Cl)cc1 | 2.55%
COc1ccc(C(CC(=O)Nc2cc(OC)c(OC)c(OC)c2)N2Cc3ccccc3C2=O)cc1 (configuration not stated) | 2.26%
O=C(Nc1cnn(Cc2ccc(Cl)cc2Cl)c1)c1noc2c1CCc1ccccc1-2 | -1.27%
O=C(CCS(=O)(=O)c1cc2c3c(c1)CCN3C(=O)CC2)Nc1cccc(Br)c1 | 1.13%
CCOc1ccc(CCNC(=O)c2ccc3c(c2)N(Cc2ccccc2F)C(=O)c2ccccc2S3=O)cc1OCC (configuration not stated) | 7.85%
COc1ccc(CCNS(=O)(=O)c2cc(-c3onc(C)c3C)ccc2OC)cc1OC | -1.41%
Cc1ccc(CCNC(=O)c2c[nH]c3ccc(S(=O)(=O)Nc4cccc(C(F)(F)F)c4)cc3c2=O)cc1 | -10.1%
